In the supplement of paper PMC10126150:
Values marked as one replicate rest on one cluster of the flow cell; about a third of the high ones do not repeat.

Test system: ATP
Assay: switch fluorescence ratio, 500 uM ATP over buffer (Cy3 cluster intensity, sum of 5 cycles each) (fold (ratio)); higher = stronger signal-on switching upon ATP binding; sequences stand for … in TCGTCGGCAGCGTCAGATGTGTATAAGAGACAGTTTTTTTTTTTTTTTTTTTTTTTTT…TC
Settings: aptamer strand: ATP DNA aptamer (quencher-CACCTGGGGGAGTATTGCGGAGGAAGG + anchor), 100 nM annealed; ATP concentration: 500 uM; one replicate
Summary of the method: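 Per cluster, summed Cy3 intensity from the target cycles was divided by that from the buffer cycles to give the fluorescence ratio, then averaged per switch-domain sequence. Clusters outside 100-1000 RFU were excluded. The Cy3-labelled switching-strand clusters, on a modified Illumina MiSeq flow-cell, were annealed to 100 nM quencher-labelled ATP aptamer and imaged in selection buffer, then after 15 min with 500 uM ATP at 22 °C, for five cycles with NaOH stripping and re-annealing between them.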
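Further: ATP exposure 15 min at 22 °C before imaging.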

Row | Sequence | switch fluorescence ratio
1 | CATCTCTAAG | 1.02
2 | CATCTCTTTT | 0.991
3 | CATCTGGAAC | 1.38
4 | CATCTTTAGG | 1.02
5 | CATGAAATAT | 0.95
6 | CATGAACAGG | 1.06
7 | CATGAGCAAG | 1.68
8 | CATGAGCCAC | 1
9 | CATGAGGGAC | 1.19
10 | CATGAGTGGC | 1.11
11 | CATGATAGAG | 0.986
12 | CATGATAGTC | 0.95
13 | CATGATGGTT | 1.01
14 | CATGCCAGGA | 1.05
15 | CATGCGAGCA | 0.964
16 | CATGCGGGTC | 1.06
17 | CATGCTAGTA | 0.985
18 | CATGCTGACC | 1.03
19 | CATGGAATAA | 0.996
20 | CATGGAGGTA | 1.02
21 | CATGGATGAC | 0.96
22 | CATGGCACAA | 1.02

Row | Sequence | switch fluorescence ratio
23 | CATGGCGGTG | 1
24 | CATGGCTTA | 0.997
25 | CATGGTGGAT | 1.05
26 | CATGGTGTCT | 0.98
27 | CATGGTTAGT | 0.981
28 | CATGTCACCG | 0.985
29 | CATGTCACCT | 1.14
30 | CATGTCCTGA | 0.994
31 | CATGTCGTCC | 1.06
32 | CATGTGCCTG | 0.938
33 | CATGTTGTG | 1.02
34 | CATGTTGTTT | 0.968
35 | CATTAAAGCT | 1.11
36 | CATTACTAGA | 1.03
37 | CATTAGTAAT | 1.05
38 | CATTATAAGC | 1.13
39 | CATTATAGCA | 1
40 | CATTCAAAAC | 1.02
41 | CATTCAACAC | 1.06
42 | CATTCAGAGT | 0.985
43 | CATTCATCTG | 1.14
44 | CATTCCGGGG | 1.1

Row | Sequence | switch fluorescence ratio
45 | CATTCGATGG | 1.02
46 | CATTCGCTCT | 1.54
47 | CATTCGGGGA | 0.987
48 | CATTCGTTGG | 0.988
49 | CATTCGTTTT | 0.962
50 | CATTCTGGAA | 1.04
51 | CATTCTGT | 0.95
52 | CATTCTGTGA | 0.978
53 | CATTGAAGTC | 0.944
54 | CATTGACTCC | 1.18
55 | CATTGCAGGT | 1.03
56 | CATTGCCTTA | 0.996
57 | CATTGGAACA | 0.994
58 | CATTGGCGGG | 1
59 | CATTGGGCAA | 1.16
60 | CATTGGGCGT | 0.974
61 | CATTGTACTA | 1.04
62 | CATTGTATGA | 0.965
63 | CATTGTGGAG | 0.991
64 | CATTTAAGAC | 1.05
65 | CATTTATTGG | 1.02
66 | CATTTCCAAA | 1.04

Row | Sequence | switch fluorescence ratio
67 | CATTTCTCCA | 1.6
68 | CATTTCTCTT | 0.993
69 | CATTTGAAGG | 1.02
70 | CATTTGAATC | 1.02
71 | CATTTGGG | 0.984
72 | CATTTTCGAG | 0.964
73 | CATTTTCTA | 0.999
74 | CATTTTGGGT | 0.989
75 | CATTTTTGA | 0.996
76 | CATTTTTGG | 0.969
77 | CATTTTTTGC | 1.01
78 | CCAAAAAGCT | 1.01
79 | CCAAAATCGG | 0.992
80 | CCAAACCGTG | 1.07
81 | CCAAACGTTA | 1.16
82 | CCAAAGCCCA | 1.15
83 | CCAAAGTAGC | 1.4
84 | CCAAATCGAA | 0.992
85 | CCAACAGCAT | 3.72
